# Source: the supplement of paper PMC12645437, “Orthogonal IMiD-Degron Pairs Induce Selective Protein Degradation in Cells” (ACS Chemical Biology, 2025)
# This is one part of the list.
# B1: Q9UKT9 (peptide)
# chain: LLCEICGFWCTQKGNLLRHIKL
# B2: Q9UKT9 (peptide)
# chain: FMCEICGRNFTQKGNLLRHIKL
# B3: Q9UKT9 (peptide)
# chain: FFCDICGALFTQKGNLLRHIKL
# B4: Q9UKT9 (peptide)
# chain: FGCPVCGACFTQKGNLLRHIKL
# B5: Q9UKT9 (peptide)
# chain: FLCEVCGASFTQKGNLLRHIKL
# B6: Q9UKT9 (peptide)
# chain: FTCPICGHNFTQKGNLLRHIKL
# B7: Q9UKT9 (peptide)
# chain: FWCNVCGATFTQKGNLLRHIKL
# B8: Q9UKT9 (peptide)
# chain: LRCPICGFFCTQKGNLLRHIKL
# B9: Q9UKT9 (peptide)
# chain: FLCNQCGRQFTQKGNLLRHIKL
# B10: Q9UKT9 (peptide)
# chain: FLCNICGATFTQKGNLLRHIKL
# B11: Q9UKT9 (peptide)
# chain: FGCNVCGAVFTQKGNLLRHIKL
# B12: Q9UKT9 (peptide)
# chain: FTCPICGRGFTQKGNLLRHIKL
# B13: Q9UKT9 (peptide)
# chain: LQCPICGFLCTQKGNLLRHIKL
# B14: Q9UKT9 (peptide)
# chain: FLCEQCGAYFTQKGNLLRHIKL
# B15: Q9UKT9 (peptide)
# chain: LECEICGFLCTQKGNLLRHIKL
# B16: Q9UKT9 (peptide)
# chain: FECEQCGACFTQKGNLLRHIKL
# B17: Q9UKT9 (peptide)
# chain: FQCSVCGHGFTQKGNLLRHIKL
# B18: Q9UKT9 (peptide)
# chain: FSCNQCGHYFTQKGNLLRHIKL
# B19: Q9UKT9 (peptide)
# chain: FSCSVCGHWFTQKGNLLRHIKL
# B20: Q9UKT9 (peptide)
# chain: FLCPQCGASFTQKGNLLRHIKL
# B21: Q9UKT9 (peptide)
# chain: LFCNQCGFMCTQKGNLLRHIKL
# B22: Q9UKT9 (peptide)
# chain: LRCNQCGFDCTQKGNLLRHIKL
# B23: Q9UKT9 (peptide)
# chain: FSCEICGASFTQKGNLLRHIKL
# B24: Q9UKT9 (peptide)
# chain: FHCEICGRMFTQKGNLLRHIKL
# B25: Q9UKT9 (peptide)
# chain: FSCNICGALFTQKGNLLRHIKL
# B26: Q9UKT9 (peptide)
# chain: FWCPVCGAAFTQKGNLLRHIKL
# B27: Q9UKT9 (peptide)
# chain: FQCSVCGHAFTQKGNLLRHIKL
# B28: Q9UKT9 (peptide)
# chain: FCCPICGHNFTQKGNLLRHIKL
# B29: Q9UKT9 (peptide)
# chain: FRCPQCGASFTQKGNLLRHIKL
# B30: Q9UKT9 (peptide)
# chain: FCCPVCGAPFTQKGNLLRHIKL
# B31: Q9UKT9 (peptide)
# chain: FFCNICGALFTQKGNLLRHIKL
# B32: Q9UKT9 (peptide)
# chain: LGCEICGFSCTQKGNLLRHIKL
# Biological target: no compound (DMSO)
# Assay: log2 fold change of degron read counts, EGFP-low vs EGFP+ sorted cells; higher = lower degron-EGFP level without compound (poor expression or instability)
# Conditions: compound: DMSO control; 18 h
# 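Note: jurkat cells carrying a lentiviral library of mutant zinc finger degrons fused to EGFP plus mCherry, mCherry+ cells FACS sorted, degron abundance counted by next-generation sequencing.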
row,Sequence,log2 fold change of degron read counts
1,B1,1.59
2,B2,-1.9
3,B3,-0.0379
4,B4,0.618
5,B5,-1.81
6,B6,0.0162
7,B7,-0.763
8,B8,2.47
9,B9,-0.847
10,B10,-1.28
11,B11,0.377
12,B12,0.0992
13,B13,0.753
14,B14,-0.84
15,B15,0.509
16,B16,-1.87

row,Sequence,log2 fold change of degron read counts
1,B17,-0.987
2,B18,0.742
3,B19,0.499
4,B20,-1.04
5,B21,1.37
6,B22,0.174
7,B23,-1.54
8,B24,-0.651
9,B25,-0.00873
10,B26,0.932
11,B27,-0.863
12,B28,0.0154
13,B29,-1.18
14,B30,0.709
15,B31,0.821
16,B32,0.121
